Experimental data published in PMC4336329 (PLoS ONE, 2015).
Screen size: about 310,000 compounds; about 2,200 (0.71%) showed an effect of 50% or more. The effect is printed as a negative number. Some of the results follow.

Biological target: human ether-à-go-go-related gene (hERG) potassium channel (human, UniProt Q12809)
Test: primary screen, population patch clamp on CHO cells stably expressing hERG

Sequence of human ether-à-go-go-related gene (hERG) potassium channel (Q12809 whole entry, looked up): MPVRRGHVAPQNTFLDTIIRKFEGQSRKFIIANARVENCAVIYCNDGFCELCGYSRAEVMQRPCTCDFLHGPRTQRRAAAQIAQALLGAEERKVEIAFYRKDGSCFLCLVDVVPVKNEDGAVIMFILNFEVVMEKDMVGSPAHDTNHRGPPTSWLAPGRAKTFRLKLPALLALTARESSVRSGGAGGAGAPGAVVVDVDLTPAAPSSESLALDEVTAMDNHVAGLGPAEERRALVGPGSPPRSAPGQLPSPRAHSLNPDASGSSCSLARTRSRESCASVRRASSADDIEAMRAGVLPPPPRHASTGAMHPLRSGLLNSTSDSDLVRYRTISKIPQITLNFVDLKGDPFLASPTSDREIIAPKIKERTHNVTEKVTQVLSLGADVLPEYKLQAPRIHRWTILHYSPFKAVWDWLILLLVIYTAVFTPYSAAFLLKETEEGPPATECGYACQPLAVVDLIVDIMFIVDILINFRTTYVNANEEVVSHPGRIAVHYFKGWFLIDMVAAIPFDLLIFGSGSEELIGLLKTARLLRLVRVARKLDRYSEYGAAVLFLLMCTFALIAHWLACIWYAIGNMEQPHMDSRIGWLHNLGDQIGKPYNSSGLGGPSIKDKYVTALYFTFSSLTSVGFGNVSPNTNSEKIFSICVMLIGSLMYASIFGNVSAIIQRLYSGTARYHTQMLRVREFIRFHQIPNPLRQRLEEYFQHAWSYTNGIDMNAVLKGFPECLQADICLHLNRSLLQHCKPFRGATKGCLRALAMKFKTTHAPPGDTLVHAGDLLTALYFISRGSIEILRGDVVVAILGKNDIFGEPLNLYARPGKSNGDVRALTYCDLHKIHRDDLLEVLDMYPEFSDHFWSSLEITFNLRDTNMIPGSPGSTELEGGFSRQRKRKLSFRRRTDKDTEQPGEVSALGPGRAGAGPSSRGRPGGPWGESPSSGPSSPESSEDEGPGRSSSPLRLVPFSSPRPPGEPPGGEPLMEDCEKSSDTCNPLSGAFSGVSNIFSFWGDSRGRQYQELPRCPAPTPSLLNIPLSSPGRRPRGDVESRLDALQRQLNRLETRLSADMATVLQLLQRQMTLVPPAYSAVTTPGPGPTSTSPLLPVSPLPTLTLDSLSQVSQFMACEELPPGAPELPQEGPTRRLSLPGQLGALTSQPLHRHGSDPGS

SMILES	hERG current change (%, negative = inhibition) at 1uM [%]
CCOC(=O)c1c(-c2ccccc2)oc2ccc(O)c(CN(C)C)c12	-2.31
CCC1(c2ccc(F)cc2)NC(=O)N(CC(=O)Nc2ccc(C)c(S(=O)(=O)N3CCOCC3)c2)C1=O (stereo not drawn)	8.83
Cc1c(Nc2nc(-c3ccccc3)cs2)c(=O)n(-c2ccccc2)n1C	5.67
CC1CCCN(CC(=O)c2ccc(Cl)c(Cl)c2)C1 (stereo not drawn)	3.63
O=C(O)c1ccc2c(=O)n3c(nc2c1)/C(=C/c1cccc(O)c1)CC3	15.3
CCOC(=O)C1(Cc2ccc(OC)cc2)CCN(C(=O)Cc2cccnc2)CC1	4.38
COc1ccccc1C(=O)NC(=O)Nc1cccc(Cl)c1	7.09
Oc1ccc2c(c1)C1CCCC1(N1CCOCC1)O2 (stereo not drawn)	6.86
CCOc1ccc(N2C(=O)CC(N)C2=O)cc1 (stereo not drawn)	5.8
CCC(C(=O)OCC(=O)Nc1ccc(C)c(S(=O)(=O)N2CCOCC2)c1)c1ccccc1 (stereo not drawn)	-17.1
Cc1cccc(-c2nnc(-c3cccc(NC(=O)Cc4cccs4)c3)o2)c1	15.4
Cc1ccc(NC(=O)Nc2ccc(C(=O)N3CCOCC3)cc2)cc1	2.37
S=c1[nH]nc(-c2ccc3c(c2)OCO3)n1-c1ccccc1	18.1
COc1ccc(Cc2c(O)[nH]c(=S)[nH]c2=O)cc1	11
CC(C)(C)NS(=O)(=O)c1cc2c3c(c1)CCN3C(=O)CC2	17.1
O=C(Nc1nnc(SCc2ccc(F)cc2)s1)C1=COCCO1	7.59
CN(C)S(=O)(=O)c1ccc2oc(SCC(=O)Nc3ccccc3F)nc2c1	3.67
CC(=O)Nc1ccc(OCC(O)Cn2nc(C)c(C(C)=O)c2C)cc1 (stereo not drawn)	6.18
Oc1c(Cl)cc(Cl)cc1C=Nc1ccccc1N1CCCC1	0.193
N#Cc1sc2nc(N3CCCCC3)c3c(c2c1N)CCCC3	3.55
Cl.Nc1ccc2nc(CN3CCOCC3)[nH]c2c1	11.4
CC(=O)C1=C(C)Nc2ncnn2C1c1ccccc1OCc1ccccc1 (stereo not drawn)	13.5
Cc1ccc(NC(=O)Nc2nnc(Cc3ccc(F)cc3)s2)cc1	13.9
CS(=O)(=O)N1CCN(Cc2ccccc2C(F)(F)F)CC1	2.42
COc1ccccc1C(=O)NNC(=O)C(=O)NC(C)(C)C	14.8
CCOc1ccccc1NC(=O)CN(c1ccc(OC)cc1)S(=O)(=O)c1c(C)[nH]c(=O)[nH]c1=O	13.4
Cc1cccc(NC(=O)CSc2nc(N)c(NC(=O)c3cccs3)c(=O)[nH]2)c1	11.3

SMILES	hERG current change (%, negative = inhibition) at 1uM [%]
COc1ccc(C(=O)CCc2ccccc2O)c(OC)c1	13.6
COCCCN1C(=O)/C(=C\c2ccc3c(c2)OCO3)C(C(=O)OC)=C1C	6.26
COc1ccc2c(c1)C(=O)N(Cc1ccccc1)C(=O)C2(C)C	8.81
CCCCOc1ccc(/C(O)=C2/C(=O)C(=O)N(CCN(C)C)C2c2ccc(O)c(OC)c2)cc1 (stereo not drawn)	4.79
Cc1cc(/C=N\NC(=O)COc2cccc3cccnc23)c(C)n1-c1ccc(Br)cc1	-10.6
CCOC(=O)C1CCN(C(=O)Cn2cc(C(=O)c3ccco3)c3ccccc32)CC1	3.22
Cc1cc(NC(=O)/C=C/c2ccccc2)no1	17.7
CCc1nc2ccccc2c(C(=O)Nc2ccc(F)cc2)c1C	9.64
CCC(C)NC(=O)CCC(=O)NNc1nc2ccccc2c2nc(C)nn12 (stereo not drawn)	11.3
O=C(NCC1CCCO1)C1CCCN(S(=O)(=O)c2ccc(F)cc2)C1 (stereo not drawn)	14
COc1cc(/C=C2\C(=N)N3N=C(S(C)(=O)=O)SC3=NC2=O)ccc1OCCOc1ccccc1C	8.18
Cc1c(F)cccc1NC(=O)c1ccc2c(c1)CCN2S(C)(=O)=O	7.21
Cc1cc(NC(=O)COc2ccc(N(C)S(=O)(=O)c3ccccc3)cc2)no1	11.4
COc1cc(CNc2ccc3[nH]c(=O)[nH]c3c2)cc(Br)c1OCc1ccccc1F	13
CCn1cc(C(=O)N[C@@H](CCSC)C(=O)NCCN2CCOCC2)c(=O)c2cc3c(cc21)OCO3	16.4
O=C(OCC(=O)N1N=C(c2ccc(Cl)cc2)CC1c1ccco1)c1ccco1 (stereo not drawn)	11.1
COc1ccccc1-c1cn(S(=O)(=O)c2ccc(C)cc2)nc1N	11
Cc1ccc([N+](=O)[O-])cc1NC(=O)c1ccc(C(C)(C)C)cc1	-4.91
CCCCn1c(N)c(N(CCOC)C(=O)CSCc2ccc(C)cc2)c(=O)[nH]c1=O	12.9
COc1ccc(C2=NOC(Cn3nc(C(=O)NCc4ccccc4OC)cc3-c3ccccc3)C2)cc1 (stereo not drawn)	2.69
C=CCSc1nnc(NC(=O)c2cccc(S(=O)(=O)N(C)c3ccccc3)c2)s1	3.78
COc1ccc(S(=O)(=O)NCC(c2cccs2)N2CCc3ccccc3C2)cc1 (stereo not drawn)	4.93
Cn1c(CNC(=O)c2ccco2)nnc1SCC(=O)c1ccc(F)cc1	11.1
Cc1ccc(NC(=O)CCNC(=O)N2C[C@H]3C[C@@H](C2)c2cccc(=O)n2C3)c(C)c1	12.1
Cl.OC(COc1c(F)cc(Br)cc1F)CN1CCc2ccccc2C1 (stereo not drawn)	-29.2
COc1ccc(-n2c(SCC(=O)Nc3cc(C)on3)nc3ccccc3c2=O)cc1Cl	-3.86
O=C(O)c1cccc(NS(=O)(=O)c2ccc(Oc3ccc(S(=O)(=O)Nc4cccc(C(=O)O)c4)cc3)cc2)c1	12.5
